Test results reported in PubChem BioAssay AID1508624 (National Center for Advancing Translational Sciences (NCATS), 2021).
The campaign covered roughly 48,000 compounds. About 120 (0.25%) were called active. Roughly 4% stayed inconclusive and do not appear here. Calls follow the shape of the dose curve; as a rule, active = well fitted activation curve with a large enough effect; inconclusive = small, poorly fitted or top-dose-only effect, or another doubt; inactive = no such curve, though single readings can be large or run the other way. Some of the results follow.

Test: Primary qHTS for Identification of Small Molecule Activators of Huntingtin-Antisense Promoter Activity; also: nearly all actives have a fitted effect of over 55% in size
Conditions: HEK293 HTT-AS promoter firefly luciferase reporter, 24 h; series mostly up to 57.5 µM; activity change, positive = activation: at the top concentration
How it was run: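 HEK293 Fluc reporter, 2,500 cells/well, 24 h pre-culture; cpds up to 57.5 uM final, 24 h 37 degrees C; Dual-Glo, 10 min RT; normalized vehicle = 0%, zero RLU = -100%.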

Activity change, positive = activation, inactive:
CCc1ccc(OCC(=O)N(Cc2ccco2)Cc2ccccc2Cl)cc1 -31.6%, Cc1ccc(NC(=O)CCCn2c(=O)c3cccn3c3ccccc32)c(C)c1 -4.52%, CCOC(=O)c1cnc2c(ccc3ccccc32)c1Nc1cccc(C(F)(F)F)c1 -22.8%, Cc1ccc(C(=O)NCC(c2ccc3c(c2)OCO3)N2CCN(C)CC2)cc1C (configuration not stated) -7.4%, CCc1noc(-c2ccc(NCc3ccccc3)c([N+](=O)[O-])c2)n1 14%, CCOC(=O)c1c(C)c(C(=O)NCc2ccc(OC)cc2)c(C)n1CC -10.3%, COc1cccc(C(=O)N(Cc2cccnc2)c2nc3c(OC)ccc(C)c3s2)c1OC -34.2%, O=C(CSc1nc2ccccc2nc1Cc1ccc(Cl)cc1)N1CCCc2ccccc21 -5.05%, CCOc1cc(C2CC(=O)Nc3cc4c(cc32)OCCO4)ccc1O (configuration not stated) -26.3%, COC(=O)C(C)Sc1nc2c(cnn2-c2ccc(F)cc2)c(=O)[nH]1 (configuration not stated) -4.34%, CCOC(=O)Cn1c(=O)n(C2CCCCC2)c2nc(-c3ccc(CC)cc3)nc(C(N)=O)c21 -15.7%, Cc1nc2ccccc2n2c(-c3ccccc3)c3c(=O)n(C)c(=O)n(C)c3c12 16.1%, Cc1cc(C)cc(NC(=O)Cn2c(=O)n(-c3cc(C)cc(C)c3)c(=O)c3oc4ccccc4c32)c1 -20.8%, Cn1nc(C(=O)NCc2cccc(Cl)c2)c2c1-c1ccccc1S(=O)(=O)C2 -13.7%, Cc1ccccc1N(C)S(=O)(=O)c1nnc(NC(=O)c2ccccc2F)s1 -27.6%, COc1cc(CN2CCc3nc(N4CCN(c5ncccn5)CC4)ncc3C2)cc(OC)c1OC -73.9%, COc1ccc(-n2ccnc2SCC(=O)Nc2nnc(C)s2)cc1 -18.8%, COc1cccc(Cn2c(CNC(=O)CCc3ccccc3)nc3cccnc32)c1 -13.2%, Cc1ccc(NC(=O)C(=O)NCCc2sc(-c3ccc(Cl)cc3)nc2C)cc1C -3.85%, Cc1ccc(S(=O)(=O)NCCc2csc(-c3ccc(Cl)cc3)n2)cc1 -61.5%, Cc1c(Cl)cccc1NC(=O)CCS(=O)(=O)c1ccc2c(c1)oc(=O)n2C -5.86% [at 11.5 µM, percent change from vehicle, -100% = no light], CN(c1ccccc1)S(=O)(=O)c1nnc(NC(=O)C2CCCCC2)s1 -18.1%, COc1cccc(CNC(=O)CCn2nc(C)c3c(C)n(-c4ccccc4)nc3c2=O)c1 8.43%, CCOC(=O)C1CCCN(S(=O)(=O)c2cc3c4c(c2)CC(=O)N4CCC3)C1 (configuration not stated) -15%, COc1ccc(C2c3c(oc4ccc(C)cc4c3=O)C(=O)N2CCCN2CCOCC2)cc1OC (configuration not stated) 1.44%, COc1ccc(NC(=O)C2=CC(c3ccc4c(c3)OCO4)=NS(=O)(=O)N2C)cc1 -11.9%, CCC(C)(C)NC(=O)C1CCN(S(=O)(=O)c2c(C)noc2/C=C/c2ccc(C)cc2)CC1 -33.5%, COc1ccc(C)cc1NC(=O)C1COc2ccccc2C1 (configuration not stated) 22.2%, Fc1ccc(-n2cc(-c3ccccc3)c3c(NCCc4ccccc4)ncnc32)cc1 10.3%, CCc1ccc(NC(=O)Cn2c(=O)n(CCCCC(=O)NCCc3ccccc3)c(=O)c3ccccc32)cc1 -7.98%, COc1ccc(-c2noc(CC(=O)Nc3ccc(Br)cc3C)n2)cc1 -8.07%, COc1ccc(S(=O)(=O)NCC(c2ccc(N(C)C)cc2)N2CCCC2)cc1 (configuration not stated) -6.27%, COc1cccc(CNC(=O)c2oc3c(c2C)-c2nn(Cc4cccc(Cl)c4)cc2CC3)c1 -31.8%, CCCCCCOC(=O)NC(=N)c1ccc(NCc2nc3cc(C(=O)N(CCC(=O)OCC)c4ccccn4)ccc3n2C)cc1 -29.7%, Cc1ccc2c(=O)cc(C(=O)Nc3ccc(S(=O)(=O)N(C)Cc4ccccc4)cc3)oc2c1C -8.68%, COc1cccc(C(=O)NCc2cn3ccccc3n2)c1 -8.75%, CN(N=O)C(=O)N[C@@H]1[C@@H](O)[C@H](O)[C@@H](CO)O[C@@H]1O -10.2%, CCOc1ccc(OCC)c(NS(=O)(=O)c2c(C(=O)N3CCCCCC3)c(C)n(C)c2C)c1 -12.4%, CCOc1ccc(C(=O)c2cn(CC(=O)Nc3ccc(F)cc3)c3cc4c(cc3c2=O)OCCO4)cc1 -37.9%, O=C(CSc1nnc(-c2ccccc2)c(-c2ccccc2)n1)NC1CCCC1 -23.8%, O=C(NCCCO)C(=O)NCC(c1ccc2c(c1)OCO2)N1CCOCC1 (configuration not stated) -7.98%, CCCCCCCCCCCCCCCCCCCCCCO 3.72%, CCN1C(C(=O)c2ccccc2)=C(OC(=O)c2ccc(OC)cc2)c2ccccc2S1(=O)=O -31.1%, NCCc1cnc[nH]1, Cc1ccc(NC(=O)c2oc3ccc(S(=O)(=O)N4CCCCC4)cc3c2C)cc1Cl 1.97%, CCN(Cc1ccccc1)C(=O)CCc1c(C)nc2c(c(C)nn2-c2ccc(C)c(C)c2)c1C -10.7%, NS(=O)(=O)c1ccc(NC2=CC(=O)c3ccccc3C2=O)cc1 -17.5%, CCc1cccc(C)c1NC(=O)Cn1cc2c(n1)CCCC2 -23.1%, Cn1c(=O)c2c(-c3ccc(Br)cc3)n(CCc3ccccc3)cc2n(C)c1=O -13.2%, Cc1ccc(NC(=O)Nc2nnc(N(C)C3CCCCC3)s2)c(Cl)c1 4.25%, Cc1cc(C)c(/C=C/c2onc(C)c2S(=O)(=O)N2CCC(C(=O)N(C)Cc3ccccc3)CC2)c(C)c1 -5.1%, Cc1ccc(-n2c(=O)c3c4c(sc3n(Cc3ccccc3C)c2=O)CCC4)cc1C -17.3%, CC(=O)NC(Cc1ccccc1)C(=O)O (configuration not stated) -11.2%, O=C(Nc1ccc2c(c1)OCO2)c1cc(-c2ccc(Br)cc2)on1 7.75%, Cc1ccccc1C(=O)Nc1nc2nc(-c3ccccc3)cc(=O)n2[nH]1 -0.14%, COc1ccc(O)cc1 -3.13%, Clc1cccc(-n2cc(-c3ccccc3)c3c(N4CCCCC4)ncnc32)c1 -4.18%, CCC1CN(C(=O)C2CCN(S(=O)(=O)c3c(C)noc3/C=C/c3ccccc3F)CC2)c2cc(C)ccc2O1 (configuration not stated) 16.5%, COCCN1CCN(Cc2ccc(C(=O)NC(C)C)cc2)C(=O)C1=O 5.65%, CCCCn1c(SCC(=O)NCc2ccc(C)cc2)nc2c(sc3ccccc32)c1=O 9.8%, COc1ccc(CNC(=O)C(C)n2c(=O)cc(C)c3c(C)nn(-c4ccccc4)c32)cc1 (configuration not stated) -1.65%, COc1ccc(NC(=O)c2oc3ccccc3c2NC(=O)Cc2cccs2)c(OC)c1 -14.1%
